Here are results for one molecule from patent US8653242B2, “Therapeutic antibodies against flagellated Pseudomonas aeruginosa” (priority 2010, dated 2014).

Assay [1] addresses P. aeruginosa flagellin type B (Pseudomonas aeruginosa, UniProt P72151). Nature of the assay: ELISA of LST-008 on recombinant flagellin type B. In kind it is binding. The conditions noted are these: 250 ng/well antigen. For orientation: In an ELISA, binding on a coated surface is turned into a signal by an enzyme label.
The subject of assay [2] is P. Aeruginosa strains harboring flagellin type B (Pa01, Ka01, Ka02, Ka03, Ka04, 25619, NCTC 10662). Description: Whole-bacteria binding ELISA, flagellin type B strains. The conditions noted are these: LST-007 supernatant, LST-008 0.5 μg/ml.
In assay [3] the test system is P. Aeruginosa flagellin type A strain 27853. To be noted: ELISA, LST-007 supernatant, LST-008 0.5 μg/ml.

Sequence of UniProt P72151 (P72151 whole entry): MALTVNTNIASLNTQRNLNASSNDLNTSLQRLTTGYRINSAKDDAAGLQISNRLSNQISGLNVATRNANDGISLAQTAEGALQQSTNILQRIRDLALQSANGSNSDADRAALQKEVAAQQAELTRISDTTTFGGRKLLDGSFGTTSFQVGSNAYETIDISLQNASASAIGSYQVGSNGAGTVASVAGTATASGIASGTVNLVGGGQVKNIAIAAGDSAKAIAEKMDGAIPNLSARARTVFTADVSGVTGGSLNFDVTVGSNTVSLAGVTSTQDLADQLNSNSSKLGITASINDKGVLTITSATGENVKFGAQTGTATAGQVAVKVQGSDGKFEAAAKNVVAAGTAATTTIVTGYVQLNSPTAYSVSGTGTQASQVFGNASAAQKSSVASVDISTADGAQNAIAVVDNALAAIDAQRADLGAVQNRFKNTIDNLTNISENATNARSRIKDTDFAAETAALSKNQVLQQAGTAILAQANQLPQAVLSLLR

B1: LST-008: fully human recombinant mAb: VH and VL of LST-007 linked to human IgG1 constant domains; binds flagellin type B (antibody)
heavy: QVRLVQSGTEVKKPGASVRVSCKASGYTFSNYYMYWVRQAPGQGLEWMAMINPSGGSTRYAQKFQGRVTMTRDTSTSTVYMELSSLRSEDTAVYYCARADSGSYFGYWGQGTLVTVSS[human IgG1 constant region left out]
light: DIQLTQSPSFLSASVGDRVPITCRASQGISTHLAWYQQKPGKAPKLLIYAASTLQSGVPSRFSGSGSGTEFTLTISSLQPEDSATYYCQQLKSYPLTFGGGTKVEIKRTVAAPSVFIFPPSDEQLKSGTASVVCLLNNFYPREAKVQWKVDNALQSGNSQESVTEQDSKDSTYSLSSTLTLSKADYEKHKVYACEVTHQGLSSPVTKSFNRGEC
Take B1: the “EC50 of binding to recombinant flagellin type B” value in assay [1] was about 0.01 µg/mL. The “binding to whole bacteria harboring flagellin type B” value in assay [2] was “bound all strains known to harbor flagellin type B”. Moreover, in assay [3], the “binding to whole bacteria harboring flagellin type A” value is “not flagellin type A”.
